Test results from article PMC4336329 (PLoS ONE, 2015).
Hit rate of the full screen: of about 310,000 compounds, about 2,200 (0.71%) showed an effect of 50% or more. The effect is printed as a negative number. The list shows a part of the results.

target: human ether-à-go-go-related gene (hERG) potassium channel (human, UniProt Q12809); experiment: primary screen, population patch clamp on CHO cells stably expressing hERG
Sequence (Q12809 whole entry, looked up): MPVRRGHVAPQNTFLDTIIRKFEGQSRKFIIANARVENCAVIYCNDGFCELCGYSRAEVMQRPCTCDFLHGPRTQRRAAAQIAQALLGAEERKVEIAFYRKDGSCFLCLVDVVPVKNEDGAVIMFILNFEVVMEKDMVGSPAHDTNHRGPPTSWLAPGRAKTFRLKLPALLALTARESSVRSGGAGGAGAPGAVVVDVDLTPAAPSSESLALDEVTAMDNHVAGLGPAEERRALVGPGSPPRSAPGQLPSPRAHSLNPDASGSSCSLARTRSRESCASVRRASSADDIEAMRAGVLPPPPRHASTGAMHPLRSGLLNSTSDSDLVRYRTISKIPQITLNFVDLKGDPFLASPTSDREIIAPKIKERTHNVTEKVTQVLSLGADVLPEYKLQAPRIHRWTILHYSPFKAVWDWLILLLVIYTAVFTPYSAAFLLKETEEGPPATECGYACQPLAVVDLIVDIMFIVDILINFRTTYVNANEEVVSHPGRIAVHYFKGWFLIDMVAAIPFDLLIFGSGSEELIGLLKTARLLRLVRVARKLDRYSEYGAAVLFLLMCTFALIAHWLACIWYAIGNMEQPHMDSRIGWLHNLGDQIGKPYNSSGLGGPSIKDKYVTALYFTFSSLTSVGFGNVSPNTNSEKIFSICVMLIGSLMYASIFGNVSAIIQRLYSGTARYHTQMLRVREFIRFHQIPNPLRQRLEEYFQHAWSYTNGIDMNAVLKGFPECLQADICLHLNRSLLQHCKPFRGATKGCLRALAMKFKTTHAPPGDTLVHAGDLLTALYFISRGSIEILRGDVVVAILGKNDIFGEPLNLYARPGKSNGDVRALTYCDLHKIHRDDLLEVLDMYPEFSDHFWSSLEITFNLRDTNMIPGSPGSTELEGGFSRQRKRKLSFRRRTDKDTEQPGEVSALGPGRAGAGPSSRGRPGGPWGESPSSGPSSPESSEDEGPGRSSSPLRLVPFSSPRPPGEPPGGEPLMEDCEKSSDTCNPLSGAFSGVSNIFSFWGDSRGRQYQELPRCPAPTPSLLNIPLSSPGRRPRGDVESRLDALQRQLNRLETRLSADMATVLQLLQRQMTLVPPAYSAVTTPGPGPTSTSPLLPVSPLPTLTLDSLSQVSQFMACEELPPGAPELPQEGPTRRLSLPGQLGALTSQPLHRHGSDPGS

SMILES	hERG current change (%, negative = inhibition) at 1uM
COc1ccc(OCC(=O)Nc2nc3ccc(NC(C)=O)cc3s2)cc1	11.6%
COc1ccc2[nH]c3ccc(OC)cc3c2c1	10.5%
Cc1ccc2[nH]c3c(c2c1)CCN1C(=O)OC(C)(C)C31C (centres unmarked)	11.4%
Cc1ccc(NC(=O)c2cc(S(=O)(=O)NCCC3=CCCCC3)ccc2F)cc1F	18%
COc1ccc(NC(=O)CS(=O)c2ccc(Br)cc2)cc1 (centres unmarked)	4.44%
CC(=O)N1CCc2cc(S(=O)(=O)NCCC(=O)NC3CCCc4ccccc43)ccc21 (centres unmarked)	13.1%
Clc1ccc(Nc2nc(C3CC3)cs2)cc1	11.4%
Oc1ccccc1-c1n[nH]c(=S)n1Cc1ccco1	8.7%
CN(C)S(=O)(=O)c1ccc(N2CCCC2)c(C(=O)NC2(C)CCS(=O)(=O)C2)c1 (centres unmarked)	15%
CCOC(=O)c1c(C2CCN(C(=O)OCC)CC2)nc2ccccn12	-11.3%
Cc1ccc(S(=O)(=O)Nc2ccc(N=Nc3ccc(O)cc3)cc2)cc1	19.4%
CCNC(=S)NNC(=O)c1c(Cl)c(C)nn1C	5.71%
Cc1cc(C)cc(C(=O)N(CCc2ccccc2)C2CC3CCC(C2)N3C)c1.Cl (centres unmarked)	-18%
CCN(CC)CC(=O)Nc1ccc(C)cc1C(=O)c1ccccc1	5.76%
COc1ccc(-c2ccc(NS(=O)(=O)c3cc([N+](=O)[O-])c(C)c([N+](=O)[O-])c3)cc2)nn1	9.27%
CC1CCc2c(sc(Nc3nc4c(F)cccc4s3)c2C(N)=O)C1 (centres unmarked)	21.2%
NS(=O)(=O)c1ccc(CCNC(=O)CSc2ccc([N+](=O)[O-])cc2)cc1	5.23%
CCOc1ccc(CNC(=O)c2ccc3c(c2)N(CC)CCS3)cc1	18.4%
O=C(COc1cccc2cccnc12)Nc1nccs1	1.73%

SMILES	hERG current change (%, negative = inhibition) at 1uM
CN(C)S(=O)(=O)c1cc(C(=O)NCCCn2ccc3ccccc32)ccc1Cl	1.74%
CCN(CC)C(=O)c1sc(NC(=O)c2cccs2)c(C#N)c1C	15.5%
C=CCNC(=O)c1onc(CSc2ccccc2F)c1C(=O)O	17.6%
O=C(COC(=O)C1CC1)Nc1ccc(N=Nc2ccccc2)cc1	8.32%
CN1CCC(N(C)c2ccc(C(N)=O)cc2[N+](=O)[O-])CC1	13.6%
COC(=O)CSc1[nH]c2ccccc2c1[N+](=O)[O-]	9.24%
Cc1cc(C(=O)OCC(=O)Nc2cccc(S(N)(=O)=O)c2)c2ccccc2n1	7.84%
O=C(CCCn1cc([N+](=O)[O-])cn1)Nc1ccc2c(c1)OCO2	9.46%
CC(C)(C)NC(=O)CN(C(=O)CCC(=O)Nc1nccs1)c1ccc(F)cc1	11.4%
CCOC(=O)C1=C(CC)Nc2ccccc2N=C1NC(=O)c1ccc(OC)c(S(=O)(=O)N2CCCCC2C)c1 (centres unmarked)	-7.89%
COc1ccc(N(C(=O)C2COc3ccccc3O2)C(C(=O)NC2CCCCC2)c2ccccc2)cc1OC (centres unmarked)	6.85%
CCCN(CC(=O)Nc1ccccc1C)C(=O)c1ccc(NC2CC2)c([N+](=O)[O-])c1	5.34%
CCOC(=O)c1c(C)c(C(=O)Nc2ccc3c(c2)OCCO3)c(C)n1C	6.37%
Cc1ccc(C(C(=O)NC2CCCC2)N(Cc2ccc(F)cc2)C(=O)c2csnn2)o1 (centres unmarked)	6.51%
COc1ccc(N2C(=O)c3ccccc3C(C)(C)C2=O)cc1	4.02%
Cc1nc(-c2noc(-c3cccc(Cl)c3)n2)c(C(F)(F)F)o1	11%
Cc1ccc(-n2c(C)cc(C(=O)CSc3nncs3)c2C)cc1	7.71%
CN(c1ccc(C(=O)N2CCN(Cc3ccccc3)CC2)cc1)S(=O)(=O)c1ccccc1	7.76%
Cc1ccccc1NC(=O)Cc1nc(COC(=O)CCOc2ccccc2)cs1	8.83%

SMILES	hERG current change (%, negative = inhibition) at 1uM
CCOP(=O)(OCC)c1ccccc1OCP(C)(=O)COc1ccccc1P(=O)(OCC)OCC	16%
c1ccc2c(NCC3CCCO3)nc(-c3ccncc3)nc2c1 (centres unmarked)	8.67%
O=C(NNC(=O)c1ccco1)c1csc(N2CCOCC2)n1	10.4%
O=C1c2cccnc2C(O)N1Cc1ccc(F)cc1 (centres unmarked)	7.31%
Cc1nnsc1-c1c(C(=O)Oc2ccccc2)c(C)nn1-c1ccccc1	11.9%
COc1ccc(-c2noc(CN(C)C(=O)c3ccco3)n2)cc1	12.6%
Cc1cc(C)c(S(=O)(=O)N2CCN(C(=O)C(C)Cn3cncn3)CC2)c(C)c1 (centres unmarked)	13.5%
CN1CCN(Cc2ccccc2Sc2ccccc2)CC1.O=C(O)/C=C\C(=O)O	-68.1%
Cc1ccc(-c2cc(C(=O)NCc3ccco3)c3ccccc3n2)o1	9.84%
Cc1c(C=O)c2cc(OCc3ccccc3)ccc2n1C	12.5%
COc1cccc(C(=O)/C=C2\Sc3ccccc3N2C)c1	14%
CCCCOC(=O)Nc1ccc(S(=O)(=O)Nn2cnnc2)cc1	17.4%
CCCN(C(=O)c1cn(CC)c2nc(C)ccc2c1=O)c1c(N)n(Cc2ccccc2)c(=O)[nH]c1=O	1.39%
CC(NC(=O)CC(O)(C(F)(F)F)C(F)(F)F)c1ccccc1 (centres unmarked)	6.31%
Cc1cc(NC(=O)CSc2ccc(-c3ccc(F)cc3)nn2)no1	13.1%
CS(=O)(=O)Nc1ccccc1C(=O)Nc1ccccc1Cl	0.659%
Cl.OC(COc1ccc(Cl)cc1)CN1CCC(Cc2ccccc2)CC1 (centres unmarked)	-89.6%
O=C(COC(=O)c1cccc(O)c1)Nc1ccc(OC(F)F)cc1	-6.9%
